Laboratory results taken from PubChem BioAssay AID624417 (National Center for Advancing Translational Sciences (NCATS), 2012).
Screen size: about 410,000 compounds; about 6,400 (1.6%) were called active. The shares of active, inactive and inconclusive entries below differ from those in the screen. The call rests on the fitted dose curve; in most records, active means well fitted inhibition curve with a large enough effect; inconclusive means small, poorly fitted or top-dose-only effect; inactive means no such curve, though single readings can be large or run the other way. Potencies beside an inconclusive call are fits to weak or partial responses and may not hold up.

molecular target: Glucagon-like peptide 1 receptor (Homo sapiens) (UniProt P43220); assay: qHTS of GLP-1 Receptor Inverse Agonists (Inhibition Mode); conditions: HEK293 GLP-1R CRE-luciferase, luminescence, 24 h, GLP-1R form is constitutively active; series mostly up to 38.3 µM; further: nearly all actives have a fitted effect of over 55% in size
Chain of UniProt P43220 (P43220 whole entry, looked up): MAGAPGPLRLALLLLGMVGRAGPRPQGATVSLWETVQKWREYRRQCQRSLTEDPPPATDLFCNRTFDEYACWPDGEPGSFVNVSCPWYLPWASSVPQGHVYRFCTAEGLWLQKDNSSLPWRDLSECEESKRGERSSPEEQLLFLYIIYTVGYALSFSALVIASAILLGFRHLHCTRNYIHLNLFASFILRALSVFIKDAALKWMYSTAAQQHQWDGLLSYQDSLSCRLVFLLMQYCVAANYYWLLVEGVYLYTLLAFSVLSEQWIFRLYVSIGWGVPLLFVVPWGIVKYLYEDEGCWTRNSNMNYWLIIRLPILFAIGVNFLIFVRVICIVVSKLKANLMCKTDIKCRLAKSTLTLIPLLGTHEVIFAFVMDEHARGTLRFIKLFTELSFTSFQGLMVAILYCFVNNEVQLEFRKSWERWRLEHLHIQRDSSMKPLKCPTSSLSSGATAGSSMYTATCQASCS
Outline: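 Inverse agonists were sought by their lowering of basal cAMP reporter luciferase output in HEK293 cells stably carrying constitutively active human GLP-1R, after 24 h compound treatment.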
Potency means the concentration at half of the fitted maximal effect; tags describe the fitted curve by direction and shape.

Potency, inactive:
CCOc1ccccc1NC(=O)N(C)CCc1c(C)nn(CC)c1C
CCS(=O)(=O)N1Cc2ccccc2CC1C(=O)Nc1ccc(F)c(F)c1 (stereo not given)
O=C1NC(=O)C(=CC=Cc2ccccc2)S1
Cc1oc2ncnc(N3CCOCC3)c2c1C(=O)N1CCN(c2cccc(C(F)(F)F)c2)CC1
COc1ccc(C2=NN(S(C)(=O)=O)C(c3cn(-c4ccccc4)nc3-c3cccs3)C2)cc1 (stereo not given)
COc1ccc(S(=O)(=O)Nc2cccc3c2O[C@@H](CN(C)Cc2ccc(C(=O)O)cc2)[C@@H](C)CN([C@H](C)CO)C3=O)cc1
O=C(NCCc1c[nH]c2ccccc12)c1ccccc1
CSc1ncc2c(n1)-c1ccccc1N(Cc1ccc(F)cc1)S2(=O)=O

Potency, active:
c1ccc(CCn2nnnc2C(c2cccs2)N2CCN(Cc3ccc4c(c3)OCO4)CC2)cc1 (stereo not given) 7.08 µM

Potency, inconclusive:
COc1cccc(NC(=O)CN2CCN(c3ccc(F)cc3)CC2)c1 6.31 µM [inhibitor, partial curve, poor fit]
Cc1ccc(C)c(S(=O)(=O)N2CCN(C(=O)c3ccc(N4CCCC4)c([N+](=O)[O-])c3)CC2)c1 14.1 µM [inhibitor, partial curve, poor fit]
Cc1cc(C)cc(NS(=O)(=O)c2ccc(-c3cnc(C4CC4)o3)cc2)c1 1.26 µM [inhibitor, full curve, poor fit]
CCCOc1ccc2c3c(c(=O)oc2c1OCCC)CCCC3 12.6 µM [inhibitor, partial curve, poor fit]
Cc1ccc(NC(=O)CCN2C(=O)C3C4CCC(C4)C3C2=O)cc1Cl (stereo not given) 10 µM [inhibitor, single point]
C/C(CC(=O)Nc1cccc(C(F)(F)F)c1)=N\NC(=O)Cc1ccccc1 12.6 µM [inhibitor, partial curve, poor fit]
CCCCOc1ccc(C(=O)NCC(=O)NC(C)CCc2ccccc2)cc1 (stereo not given) 22.4 µM [inhibitor, single point]
Cc1ccc(-c2nc3ccccn3c2Nc2ccc3c(c2)OCCO3)s1 28.2 µM [inhibitor, single point]
Nn1c(Cc2ccccc2F)nnc1SCCOc1ccc(Cl)cc1 28.2 µM [inhibitor, single point]
CC(C)OC(=O)/C(C#N)=C/c1cn(Cc2ccccc2)c2ccccc12 28.2 µM [inhibitor, single point]
CCOC(=O)C1(CCCc2ccccc2)CCN(C(=O)CN2C(=O)CSC2=O)CC1 7.08 µM [inhibitor, partial curve, poor fit]
c1ccc2c3c([nH]c2c1)C1(CCCCC1)NCC3 14.1 µM [inhibitor, single point]
CCN(C(=O)C1CCC(CNS(=O)(=O)c2cccc3nsnc23)CC1)c1cccc(C)c1 (stereo not given) 28.2 µM [inhibitor, single point]
Cc1ccc(S(=O)(=O)N(C(=O)c2ccncc2)c2ccc3oc4c(c3c2)CCCC4)cc1[N+](=O)[O-] 7.08 µM [inhibitor, single point]
CCN(C(=O)C1CCC(CNS(=O)(=O)c2cccc3nsnc23)CC1)c1ccccc1 (stereo not given) 31.6 µM [inhibitor, single point]
OC(CN1CCN(Cc2ccccc2)CC1)Cn1c2ccccc2c2ccccc21 (stereo not given) 8.91 µM [inhibitor, partial curve]
C[C@@H]1CN([C@H](C)CO)S(=O)(=O)c2ccc(C#Cc3ccccc3)cc2O[C@@H]1CN(C)C(=O)CN(C)C 11.2 µM [inhibitor, single point]
O=C(Cn1cnc2c(OCc3ccccc3)ncnc21)NCc1ccccc1 6.31 µM [inhibitor, partial curve, poor fit]
Cc1ccc(CN2C(=O)c3ccccc3Sc3ccc(C(=O)NCc4ccco4)cc32)cc1 22.4 µM [inhibitor, partial curve, poor fit]
CCN(CC)S(=O)(=O)c1cccc(C(=O)/C=C2/N(C)c3ccccc3C2(C)C)c1 6.31 µM [inhibitor, partial curve, poor fit]
COc1cccc(N2CCN(S(=O)(=O)c3ccc4c(c3)CC(C)N4C(=O)C3CC3)CC2)c1 (stereo not given) 31.6 µM [inhibitor, single point]
Cc1cc(C)nc(Nc2nc(-c3ccccc3)cs2)n1 10 µM [inhibitor, single point]
S=C(Cc1ccc(-c2ccccc2)cc1)N1CCOCC1 11.2 µM [inhibitor, partial curve, poor fit]
CCCCn1c(SCC(=O)c2ccccc2)nc2ccsc2c1=O 12.6 µM [inhibitor, partial curve, poor fit]
Cc1ccc(S(=O)(=O)N(CC(O)Cn2c3ccccc3c3ccccc32)c2cccc(C(=O)N(C)C)c2)cc1 (stereo not given) 20 µM [inhibitor, single point]
CC(C)Oc1ccc(CN=C(N)N=C(N)N)cc1Cl 8.91 µM [inhibitor, partial curve]
COc1cccc(CNc2ccc([N+](=O)[O-])cc2Cl)c1O 28.2 µM [inhibitor, single point]
CCCCOC(=O)Nc1ccc(C(C)C)cc1 4.47 µM [inhibitor, single point]
CNC(=S)Nc1ccc(N2CCN(c3ccc(C(F)(F)F)cn3)CC2)nc1 0.501 µM [inhibitor, full curve, poor fit]
COc1ccccc1-c1nc(COc2ccc(Cl)cc2Cl)no1 28.2 µM [inhibitor, single point]
COC(=O)c1sccc1NC(=O)CSc1cc(Cl)ccc1Cl 11.2 µM [inhibitor, single point]
